Source: the supplement of paper PMC10037445
Several values for one entry are separate records, joined by “and”; a condition that tells them apart may be missing. Equal entries are not always repeated. The full ranking holds about 2,900 compounds; the median of “NF-kB SEAP reporter activity, fold change vs agonist alone” is about 0.99, and the highest 2% start at about 2.6. The list shows a part of the results.

Assays:
RAW-Dual [1] = assay: NF-kB SEAP reporter activity, fold change vs agonist alone; higher = enhanced NF-kB activity; conditions: cytotoxicity flag (confluency mask): not cytotoxic
In short: (§1)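 Library stock was pin-tooled at 50 nL into 384-well plates of RAW-Dual macrophages (50,000 cells/well, DMEM), followed 1 h later by a PRR agonist, and the cells were kept at 37 °C, 5% CO2. Supernatant collected after 20 hours was read for IRF by QuantiLuc luminescence and for NF-κB by QuantiBlue absorbance at 620 nm. Reporter activity is fold change over agonist-alone wells, and a well counted as cytotoxic when its IncuCyte confluency was below 70% of agonist controls in both mask sets.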

RAW-Dual [2] = assay: NF-kB SEAP reporter activity, fold change vs agonist alone; cytotoxicity flag (confluency mask): not cytotoxic; higher = enhanced NF-kB activity
In short: as §1

[3] = library stock concentration (final ~1000-fold dilution): 10 mM, agonist: MPLA (TLR4) […]
[4] = agonist: ODN 1826 (TLR9) 0.5 ug/mL
[5] = agonist: Pam2CSK4 (TLR2/6) 0.1 ug/mL
[6] = agonist: Pam3CSK4 (TLR2/1) 0.1 ug/mL
[7] = library stock concentration (final ~1000-fold dilution): 10 mM, agonist: Imiquimod (TLR7) […]

## Cc1cc(NC(=O)c2cccc(NC(=O)/C=C/CN(C)C)c2)ccc1Nc1nccc(-c2cccnc2)n1
RAW-Dual [1]; [3]
  NF-kB SEAP reporter activity: 0.65

## Cc1cc(NC(=O)c2cccc(NC(=O)/C=C/CN(C)C)c2)ccc1Nc1nccc(-c2cccnc2)n1 (library stock concentration (final ~1000-fold dilution): 10 mM)
RAW-Dual [2]; agonist: LPS (TLR4) 0.1 ug/mL
  NF-kB SEAP reporter activity: 0.403
RAW-Dual [2]; [4]
  NF-kB SEAP reporter activity: 0.183
RAW-Dual [2]; [5]
  NF-kB SEAP reporter activity: 0.524
RAW-Dual [2]; [6]
  NF-kB SEAP reporter activity: 0.284

## CCOc1cc2ncc(C#N)c(Nc3ccc(OCc4ccccn4)c(Cl)c3)c2cc1NC(=O)/C=C/CN(C)C (library stock concentration (final ~1000-fold dilution): 2 mM)
RAW-Dual [2]; agonist: LPS (TLR4) 0.1 ug/mL
  NF-kB SEAP reporter activity: 0.312
RAW-Dual [2]; [4]
  NF-kB SEAP reporter activity: 0.82
RAW-Dual [2]; [5]
  NF-kB SEAP reporter activity: 0.47
RAW-Dual [2]; [6]
  NF-kB SEAP reporter activity: 0.699

## CCOc1cc2ncc(C#N)c(Nc3ccc(OCc4ccccn4)c(Cl)c3)c2cc1NC(=O)/C=C/CN(C)C
RAW-Dual [1]; library stock concentration (final ~1000-fold dilution): 2 mM, agonist: Imiquimod (TLR7) […]
  NF-kB SEAP reporter activity: 0.936
RAW-Dual [1]; library stock concentration (final ~1000-fold dilution): 2 mM, agonist: MPLA (TLR4) […]
  NF-kB SEAP reporter activity: 0.339

## Cc1ccc(S(=O)(=O)O)cc1.NC(=O)c1cccc2cn(-c3ccc(C4CCCNC4)cc3)nc12 (centres undefined) (library stock concentration (final ~1000-fold dilution): 10 mM)
RAW-Dual [2]; agonist: LPS (TLR4) 0.1 ug/mL
  NF-kB SEAP reporter activity: 1.04
RAW-Dual [2]; [4]
  NF-kB SEAP reporter activity: 0.181
RAW-Dual [2]; [5]
  NF-kB SEAP reporter activity: 1.41
RAW-Dual [2]; [6]
  NF-kB SEAP reporter activity: 1.1

## Cc1ccc(S(=O)(=O)O)cc1.NC(=O)c1cccc2cn(-c3ccc(C4CCCNC4)cc3)nc12 (centres undefined)
RAW-Dual [1]; [7]
  NF-kB SEAP reporter activity: 0.663
RAW-Dual [1]; [3]
  NF-kB SEAP reporter activity: 1.04

## COc1cc2c(cc1OC)-c1cc3ccc(OC)c(OC)c3c[n+]1CC2 (library stock concentration (final ~1000-fold dilution): 10 mM)
RAW-Dual [2]; agonist: LPS (TLR4) 0.1 ug/mL
  NF-kB SEAP reporter activity: 1.27 and 1.09
RAW-Dual [2]; [4]
  NF-kB SEAP reporter activity: 1.01 and 0.974
RAW-Dual [2]; [5]
  NF-kB SEAP reporter activity: 1.33 and 0.684
RAW-Dual [2]; [6]
  NF-kB SEAP reporter activity: 1.13 and 0.916

## CNC(=C[N+](=O)[O-])NCCSCc1ccc(CN(C)C)o1 (library stock concentration (final ~1000-fold dilution): 10 mM)
RAW-Dual [2]; agonist: LPS (TLR4) 0.1 ug/mL
  NF-kB SEAP reporter activity: 0.982 and 1.15
RAW-Dual [2]; [4]
  NF-kB SEAP reporter activity: 0.975 and 1.06
RAW-Dual [2]; [5]
  NF-kB SEAP reporter activity: 0.994 and 1.06
RAW-Dual [2]; [6]
  NF-kB SEAP reporter activity: 0.987 and 1.11

## C=CCc1ccc(O)c(-c2ccc(O)c(CC=C)c2)c1
RAW-Dual [1]; [7]
  NF-kB SEAP reporter activity: 0.854
RAW-Dual [1]; [3]
  NF-kB SEAP reporter activity: 0.972

## C=CCc1ccc(O)c(-c2ccc(O)c(CC=C)c2)c1 (library stock concentration (final ~1000-fold dilution): 10 mM)
RAW-Dual [2]; agonist: LPS (TLR4) 0.1 ug/mL
  NF-kB SEAP reporter activity: 0.993
RAW-Dual [2]; [4]
  NF-kB SEAP reporter activity: 0.982
RAW-Dual [2]; [5]
  NF-kB SEAP reporter activity: 0.432
RAW-Dual [2]; [6]
  NF-kB SEAP reporter activity: 0.921

## N#CCC(C1CCCC1)n1cc(-c2ncnc3[nH]ccc23)cn1 (centres undefined) (library stock concentration (final ~1000-fold dilution): 10 mM)
RAW-Dual [2]; agonist: LPS (TLR4) 0.1 ug/mL
  NF-kB SEAP reporter activity: 0.995 and 0.96 and 0.998
RAW-Dual [2]; [4]
  NF-kB SEAP reporter activity: 2.7 and 1.88 and 2.86
RAW-Dual [2]; [5]
  NF-kB SEAP reporter activity: 1.81 and 1.49 and 1.69
RAW-Dual [2]; [6]
  NF-kB SEAP reporter activity: 2.14 and 2.16 and 2.67

## CCOC(=O)/C=C/c1ccc(O)c(OC)c1 (library stock concentration (final ~1000-fold dilution): 10 mM)
RAW-Dual [2]; agonist: LPS (TLR4) 0.1 ug/mL
  NF-kB SEAP reporter activity: 0.998
RAW-Dual [2]; [4]
  NF-kB SEAP reporter activity: 1.03
RAW-Dual [2]; [5]
  NF-kB SEAP reporter activity: 0.959
RAW-Dual [2]; [6]
  NF-kB SEAP reporter activity: 1.07

## CCOC(=O)/C=C/c1ccc(O)c(OC)c1
RAW-Dual [1]; [7]
  NF-kB SEAP reporter activity: 1.08
RAW-Dual [1]; [3]
  NF-kB SEAP reporter activity: 1.2

## Cc1cc(-c2nc(-c3ccc(OC(F)(F)F)cc3)no2)nn1Cc1ccnc(N2CCN(C3CC3)CC2)c1
RAW-Dual [1]; [7]
  NF-kB SEAP reporter activity: 0.931
RAW-Dual [1]; [3]
  NF-kB SEAP reporter activity: 1.32

## Cc1cc(-c2nc(-c3ccc(OC(F)(F)F)cc3)no2)nn1Cc1ccnc(N2CCN(C3CC3)CC2)c1 (library stock concentration (final ~1000-fold dilution): 10 mM)
RAW-Dual [2]; agonist: LPS (TLR4) 0.1 ug/mL
  NF-kB SEAP reporter activity: 1.81
RAW-Dual [2]; [4]
  NF-kB SEAP reporter activity: 0.926
RAW-Dual [2]; [5]
  NF-kB SEAP reporter activity: 0.747
RAW-Dual [2]; [6]
  NF-kB SEAP reporter activity: 0.842

## CC(=O)C1CCC2C3CCC4=CC(=O)CCC4(C)C3CCC12C (centres undefined)
RAW-Dual [1]; [7]
  NF-kB SEAP reporter activity: 0.441
RAW-Dual [1]; [3]
  NF-kB SEAP reporter activity: 1.06
